Source: the supplement of paper PMC11417369
± gives the standard deviation of the averaged measurements. The list shows a part of the results.

These sequences were tested on PfAP2-I AP2 domain 3 (GST-tagged) (assay: gcPBM binding intensity (ln(normalized median fluorescence intensity)); higher = stronger DNA binding).
In short: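 GST-tagged P. falciparum DNA-binding domains, expressed in E. coli (about 25 μg on average), were applied for 1 h to an Agilent 4 × 180k array of primer-extended double-stranded 36-bp intergenic genomic probes plus negative controls. The binding buffer was 1× PBS with 1% milk, 0.2 mg/ml BSA, 0.5% salmon testes DNA and 0.03% Triton X-100. Bound protein was detected with Alexa488 anti-GST antibody and scanned at 488 nm. Binding intensity is the highest Masliner-normalised natural-log median intensity across replicate spots of either probe orientation.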

Sequence	gcPBM binding intensity (ln)
TATTAATGATAAAAAAGTACATTATTATATGATATT [XGTACX_site4235]	7.66 ± 0.49
TAAGTCATATAAATGTGTACATAAAAAAAAAAAATG [XGTACX_site1645]	8.14 ± 0.39
TTTTTTTTTTTTTTTTCACACATTGTACTTTTTTAT [CACACA_site5193]	8.18 ± 0.76
ATCATTTGCATACGCACACACACATAAAAAGAAAAA [CACACA_site355]	8.735 ± 0.078
TCTATCAAATTTGAAGGTACACATTTGAGATAATTA [XGTACX_site3797]	7.57 ± 0.32
ATTATACAAATTGAGGTGCATGAAACAAAATATGAA	9.755 ± 0.021
ATATTTTTTTTTTTATGTACTTATTTATAATTATTT [XGTACX_site5279]	7.92 ± 0.63
AGCTTGTAACAGTTTACACACTAATATTTATAAATT [CACACA_site6024]	8.04 ± 0.46
CTTATAAGAATACTAGTGCACATAATTTAACGAAAA	11 ± 0.59
CACCAAAATATATGTACATATGATAAATGTGAATAT [GTGCAC_negctrl_site83]	8.13 ± 0.57
TTTTACAATATTTTGTGTACTTATATTATGAGCTTA [XGTACX_site3287]	7.72 ± 0.5
AAAATTATCGTTATATGTACGCATCTTAATACGTAT [XGTACX_site4063]	7.79 ± 0.4
GTCTATATATTTTAGGTGCAACGTAAATGTAAAAAT	9.76 ± 0.11
AACTTTAAACCCTGAACACACACAAATACACCCAAA [CACACA_site7971]	8.705 ± 0.064
ATAATCCACAAGCACACACACACACCCATATATATA [CACACA_site1268]	8.4 ± 0.61
TATATATATATATATATATATATATATGTATATATG [XGTACX_negctrl_site242]	9.2 ± 0.91
AAAAAAAAAAAAAAAGGTACACAAAACGGTATTATT [XGTACX_site7064]	8.56 ± 0.51
ATACATATTAATATGTGTACACATTTTTATTTTTTT [XGTACX_site930]	7.95 ± 0.45
AACTCATAGGAGTGTGCACACAAAAAATTAAAAAAA [CACACA_site8996]	9.52 ± 0.42
TTTTTTTTTTTTGTCACACATATGGAATATATCTAT [CACACA_site5899]	8.06 ± 0.76
TTTTTTTTTTTTTTTGCACACATTTTAATTATTTTT [CACACA_site341]	9.11 ± 0.33
CTCAAAAAATATGAACGTACAAAATAAGTAATGACA [XGTACX_site590]	7.99 ± 0.62
TTATATTTATTTAATGAACACACGATATATTATTTT [CACACA_site1601]	7.63 ± 0.54

Sequence	gcPBM binding intensity (ln)
TTTTAAAAAAGAAAAAAAAAGGATCAGAGAAATATT [GTGCAC_negctrl_site79]	7.68 ± 0.71
TTGTAGATATTTATATGTACGAATTTATAAATATAG [XGTACX_site3611]	7.92 ± 0.26
AAAAAAATTAATAATGTGCACTTTTTAGTATTTTTA [GTGCAC_site9744]	10.24 ± 0.071
AAATGTTAATTAAATGCATGTACAAAAGGAGCGAAT [TGCATGCA_site942]	9.01 ± 0.4
TTTGTCAACCAAAATTGTACAAATGTATTCCCAATA [XGTACX_site1350]	7.57 ± 0.64
TTATTTATCAAAAAATGTACAAAAATATATAAACAA [XGTACX_site940]	7.93 ± 0.47
ATTATTTTATGAGACATAAAAAAAAAAAAAAAAAAA [CACACA_negctrl_site1067]	8.03 ± 0.61
AGATGAGAGATATATACACACAATAATACCTATTTA [CACACA_site6542]	7.58 ± 0.73
TTTTTATTCCAGTATTCACACACGAATAACCACATA [CACACA_site1897]	7.97 ± 0.61
ATTTTCTTTTTTAAACGTACACATATTAAATATATA [XGTACX_site7773]	8.34 ± 0.4
AATAAATTCATGAATTGTACGTAATGATAACATGAA [XGTACX_site2591]	7.93 ± 0.57
TTATAACTTTTCACAAGTACATATATATATGTATAA [XGTACX_site2306]	7.84 ± 0.23
TTTGGAAAGCGTGATTTTTGACAAACACAAAAAAAA [CACACA_negctrl_site651]	7.62 ± 0.75
ATATATATGTTTTTATGTACATATTTTTCTCCTTCA [XGTACX_site5899]	7.99 ± 0.7
TAATATCGTATATGAGTGCAATATTTTAGATTTTGA	10.6 ± 0.59
AATATATCAAAAATGATGACATAAATATATTAATTT [GTGCAC_negctrl_site530]	7.38 ± 0.66
TGCACGCACAGACACACACACAACTAAAAAATAATG [CACACA_site7250]	8.305 ± 0.078
AAAAAAAGGTAAAATTGTACATACGCACAAAAATAT [XGTACX_site2887]	8.23 ± 0.61
ATTTCCTTGAATGTTGCATGCTGTATTTTAATTAAA [TGCATGCA_site280]	7.89 ± 0.91
AAAAAAAGGAAATTTACACACACATATAATATACAT [CACACA_site3297]	7.8 ± 0.69
TAGATTATTATACTAGTGCAAATTATTTAAGAAAAA	10 ± 0.34
AAAAAAAAAAAGTGCACACATAAAAATATGATCTAA [CACACA_site572]	10.2 ± 0.42
